The supplement of paper PMC11417369
The list shows a part of the results.

Test system: PfHDP1 homeodomain (GST-tagged)
Assay: gcPBM binding intensity (ln(normalized median fluorescence intensity)); higher = stronger DNA binding
Method in brief: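 Plasmodium falciparum DNA-binding domains carrying a GST tag were expressed in E. coli and applied for 1 h, at about 25 μg on average, to an Agilent 4 × 180k array. The array held primer-extended double-stranded 36-bp intergenic genomic probes together with negative controls, and binding took place in 1× PBS with 1% milk, 0.2 mg/ml BSA, 0.5% salmon testes DNA and 0.03% Triton X-100. An Alexa488 anti-GST antibody detected bound protein, and the array was scanned at 488 nm. Binding intensity is taken as the highest Masliner-normalised natural-log median intensity across replicate spots of either probe orientation.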

| Sequence | gcPBM binding intensity (ln) |
| --- | --- |
| CATGAATTTTTTTAATGTACATTCACATCATAAAAA [XGTACX_site7475] | 6.78 |
| GAAACTATGTAATGCACACCAAAATAAAATTATTAA [CACACA_site1904] | 10.3 |
| TCTTCTTAACCAACTATGAAAAGGAAAAATATAACA [GTGCAC_negctrl_site565] | 6.41 |
| TTATTTTTATTATAAATTATAAAATATAAATAAATA [GTGCAC_negctrl_site616] | 5.88 |
| TAAATCCGCACGCACACACACATATTAATAAAAAAA [CACACA_site7800] | 7.57 |
| ATTATAAAAAAGAAACGTACATATTTATTGTTTTTT [XGTACX_site2161] | 6.13 |
| TATATAAATATACACCCACACACATATATATATATA [CACACA_site9247] | 9.17 |
| AATAATTTAATACATACACACGTATATCTTTTTTTT [CACACA_site8632] | 6.47 |
| TATATATATAACATATGTACATATATTTATAAATAC [XGTACX_site5484] | 7.32 |
| TATAAAAAAAAATGTGGTACATATTTCCATTTTCCA [XGTACX_site4571] | 5.79 |
| ATCGTAGTATAATATGAACACACACCCACCCACAAA [CACACA_site8616] | 8.14 |
| TATATTCCACTCATTGATTTTCTCTTCTCACAAAAA [CACACA_negctrl_site1016] | 6.61 |
| TACATTTAAAAAAAAACACACATATATATATATATA [CACACA_site2535] | 9.39 |
| ATATATTTGTATAATAGTACGTACAGGCAAAATATA [XGTACX_site7396] | 7.03 |
| ATAATAATAATAAAAAGTACAAATTATTATATATAT [XGTACX_site5160] | 6.97 |
| ATATATAAATAATGTTGTACGTATTTCAAAAGTATG [XGTACX_site3363] | 6.42 |
| TGTATGCTTACATAATGTACGGAAAAATAAAGGCAT [XGTACX_site6923] | 7.46 |
| TGCTCTCTCTTGTTGTGTACATAATACAATATATAT [XGTACX_site7427] | 7.68 |
| TATATAAGGAAATATTGTACTTTTATATTTATATTA [XGTACX_site3814] | 6.04 |

| Sequence | gcPBM binding intensity (ln) |
| --- | --- |
| ATATAAAAATATAATACACACATAAAATATATTATA [CACACA_site969] | 6.52 |
| AAAAAAAAAAAACACACACACACATACCCATACATA [CACACA_site5575] | 6.75 |
| TTTCTTTTTATATTCACACATAAATATATATATATA [CACACA_site6053] | 8.67 |
| TATAAAAGTGGACACACACACATATATATATATATA [CACACA_site4673] | 9.42 |
| ACACATCAAATATAAAAAAAAAATAACTATAAATAA [CACACA_negctrl_site587] | 6.21 |
| TAATAAATAGGACACACACACATATTTATATATCAT [CACACA_site6771] | 6.77 |
| AATTTTTTTTTTTTGTTGCACTTTTAGAGTTTTAAT [GTGCAC_site9519] | 7.37 |
| CCTTTAAGCAAAAACACACACACATATTTATTTATA [CACACA_site6294] | 6.72 |
| TTGCAAAATTGTTTTATCACAAATATATACTTAATA [CACACA_negctrl_site403] | 6.3 |
| AGATATAAGAAAAGCACACACACACTAGAAAAAAAA [CACACA_site5559] | 6.93 |
| TAATTCTTGTAAAATGTGCGCAGTAGATATAGTTTT | 7.11 |
| ATATTTATTCAATCCAGTACATATTATATATTGTAT [XGTACX_site184] | 6.44 |
| ATAAAATTATATACGTGTACATATATATATTTATGT [XGTACX_site4653] | 6.44 |
| ATAATAAGAACTCAGTGTACTATCCTTTGAATTAAC [XGTACX_site8117] | 6.16 |
| AACGTCTTTTTTTTTTTTTTTCTTTTTTTTTTTATT [CACACA_negctrl_site303] | 5.86 |
| TAATTATTTTCGGTACGTACTAATGTATATATAATT [XGTACX_site3895] | 6.56 |
| TAATAATTTTTTTTTTTTTTTTACGAAAATATGATT [GTGCAC_negctrl_site323] | 5.96 |
| TTATTTCAAAGTTGTTGTACAAAAATATATTTATAA [XGTACX_site5226] | 6.9 |
| AAGAAAAAGATGCGCATACACACAGATGAATAACAA [CACACA_site1627] | 7.68 |

| Sequence | gcPBM binding intensity (ln) |
| --- | --- |
| TTTCTTTTTTAAATTAAAATTTTTTTTTTTTTCGGT [TGCATGCA_negctrl_site52] | 6.11 |
| AAAGGTGTATTTAATACACACGTGTCATTAAAATTG [CACACA_site4508] | 6.66 |
| TATATAAATTATGTGAGTACATAATTTAGAAGGAAC [XGTACX_site2807] | 6.64 |
| AAAAAAATAATGTACACACACATATATGTTTATATA [CACACA_site6234] | 6.7 |
| AATTAAAAAGTTTTTAATGTTTTTAATTTTTTCCAC [XGTACX_negctrl_site423] | 5.99 |
| TTTCGTTGTGTATTTTGTACATATTTTTAATTATAT [XGTACX_site6687] | 7.08 |
| TCCTTTTGAACCCTTTTTCTCACAAGACCTTTATAT [TGCATGCA_negctrl_site413] | 6.57 |
| AATATAAATATAAATTGTACTTAAAAATTTCACGCA [XGTACX_site5234] | 5.95 |
| TTAAAAAACTATAATACACACCAAAAATATGCACAT [CACACA_site7079] | 10.3 |
| CTTTTTTGTAATAACACACACACAAACAGAAAAAAT [CACACA_site2075] | 7.35 |
| ATAAAATATCAATACCGTACACAAGCAGGTAAAATA [XGTACX_site3719] | 6.21 |
| ATTAATATTTAGACTTGTACATATATAATATATGTC [XGTACX_site3766] | 6.41 |
| TTTATATATTTTAGGAGTACATTAAATTATACCTTA [XGTACX_site5600] | 6.03 |
| TGTATATATATTTATGCATGCTGTGTGTATTCTTTT [TGCATGCA_site74] | 7.08 |
| AATAAAAAAAAAATAAATTTAATAATAATAATAAAA [CACACA_negctrl_site569] | 6.46 |
| AAAAAAAAAAAAAAAACACACAGAAATATATATATA [CACACA_site4611] | 8.64 |
| AAAGAAGGGAAACACACACACACACCCACAAAAAAA [CACACA_site3766] | 6.87 |
| ACCTAAAATAACTACACACACATAAAAAAAAAAAAA [CACACA_site2529] | 6.49 |
